# In ChEMBL document CHEMBL4888484, “Replenishing the malaria drug discovery pipeline: Screening and hit evaluation of the MMV Hit Generation Library 1 (HGL1) against asexual blood stage Plasmodium falciparum ,using a nano luciferase reporter read-out” (2022):
# Values joined by “and” are separate entries in the source; they are usually repeats but may differ in a detail not shown here. Identical values can stand only once. About 540 (0.36%) of roughly 150,000 compounds showed an effect of 50% or more. Some of the results follow.
# Tested on: Plasmodium falciparum
# Assay: Primary screen in NF54 nanoGlo assay, in single point, at 2uM, 72h; a lower Z score goes with more inhibition
# Type: functional, Erythrocyte
# Settings: timepoint 72 hour
Compound,% Inhibition [%],Z score,% Inhibition (2 µM)
N#CCN1CCC(Nc2ccc(Cl)c(C#N)n2)CC1,17,-2.18,–
C[C@H](Oc1cccc(Cl)c1)c1nnc2n1CCOC2,-11,1.74,–
Cc1cccc(NC(=O)CN(C)C[C@@H](C)CC(C)C)c1C,5,-0.63,–
Cc1ccc(S(=O)(=O)Cc2nc(O)c3ccccc3n2)cc1,–,–,-9% and -1%
O=C(NC1CC1)N1CCN(S(=O)(=O)c2ccccc2)CC1,2,-0.21,–
CC(C)CS(=O)(=O)C1CN(C(=O)CCc2cccc(Oc3ccc(F)cc3)c2)C1,-23,2.94,–
Cn1cc(S(=O)(=O)NC[C@]2(O)CCCc3ccccc32)cn1,-6,1.13,–
CCNC(=O)[C@@H]1CC[C@](C)(C(=O)NCc2ccc(O)cc2)C1(C)C,-9,0.83,–
OC1CCN(c2cc(N3CCC(O)CC3)nc(-c3ccccc3)n2)CC1,-10,1.2,–
COc1ccc(Cl)c(S(=O)(=O)N2CC3(CCC3(F)F)C2)c1,-10,1.34,–
O=C(c1cc(Br)cc2[nH]cnc12)N1CCc2cnccc21,0,0.05,–
Cc1cc(NC(=O)NCC2(S(C)(=O)=O)CC2)cc(C)c1Cl,6,-0.91,–
O=C(NCc1ccccc1)C1CCN(S(=O)(=O)c2ccc3[nH]ccc3c2)CC1,-9,1.56,–
OC[C@H]1C=C[C@@H](Nc2nccc(C(F)(F)F)n2)C1,-9,1.44,–
CC1CC(O)CCN1CC(=O)Nc1cc(C2CC2)nn1-c1ccccc1 (centres undefined),-5,0.59,–
CN1CCN(C(=O)CC2CC3CCC2C3)CCC1=O (centres undefined),4,-0.43,–
CCc1nc(C2CCCN2C2C=CCCC2)no1 (centres undefined),-10,1.73,–
Cc1ccc(C(=O)N2C[C@H]3CCC(=O)c4cccc2c43)nc1C,3,-0.68,–
CCc1c(C)c(C(=O)N2CCN(c3ccccc3C)CC2)n(Cc2ccccc2C)c1C,-13,1.51,–
CO[C@H]1CCC[C@@H]1Nc1nc2ccccc2o1,0,-0.05,–
O=C(N[C@@H]1CN(Cc2cc(Cl)ccc2F)C[C@H]1CO)C1CCC1,-5,0.69,–
c1ccc(OCc2nc3ccccc3n2CC2CCCCC2)cc1,-6,0.86,–

Compound,% Inhibition [%],Z score,% Inhibition (2 µM)
Cc1nn(C)cc1CN1CCN(S(=O)(=O)c2ccc(C(N)=O)o2)CC1,-1,0.21,–
O=C(CCS(=O)(=O)c1ccc(Cl)cc1)Nc1nc(-c2nc3ccccc3s2)cs1,-11,1.97,–
Cc1nc(Cn2nnc3ccccc3c2=O)n(-c2ccc(Cl)cc2)n1,19,-2.37,–
Clc1cccc(NCn2cnc3ccccc32)c1,-16,2.12,–
O=C(NC[C@H]1CCCCO1)c1cccc(CN2CCCCCC2)c1,-7,0.77,–
CC(=O)NCc1cc2n(n1)CCN(c1ccc(-c3ccccc3)nn1)C2,-10,1.4,–
O=C1CCNCCC[C@H](c2nc(-c3ccccc3)no2)CCN1,4,-0.76,–
CC(C)C(OCC1CCCO1)C(=O)NC(C)C1CC2CCC1C2 (centres undefined),0,0.03,–
C[C@H](NC(=O)NCc1ncnn1C(C)(C)C)C1CC1,-5,0.69,–
COC(=O)C(C)(C)CNC1CCCCC1S(C)(=O)=O (centres undefined),4,-0.4,–
CN1C[C@H]2CN(C(=O)CCc3conc3-c3ccccc3)C[C@@]2(C(=O)N2CCCC2)C1,-2,0.24,–
COCCN1CC(=O)N[C@H]2CN(CC3CCC3)C[C@@H]2OCc2cccc(c2)Oc2cncc(c2)C1=O,1,-0.19,–
CC(C)OCCS(=O)(=O)N1CCN(C2CCC2)CC1,-3,0.3,–
NC(=O)CN1C(=O)[C@]2(CCN(C(=O)CCc3ccncc3)C2)c2ccccc21,-5,0.85,–
Cc1ccc(OC(C)CNC(=O)CCC2CCCO2)cc1 (centres undefined),-8,1.54,–
CC(C)c1nc(N2CCCC2=O)sc1C(=O)NCc1ccc2c(c1)OCO2,-13,1.18,–
CCCOc1ccc(C2C3C(=O)N(c4cccc5ccccc45)C(=O)C3ON2c2ccccc2)cc1OCC (centres undefined),3,-0.28,–
CC[C@H](NC(=O)CN1CCS(=O)(=O)CC1)c1c(C)nn(C)c1C,-2,0.28,–
CC1CC2CCCCC2N1C(=O)C1CC=CC1 (centres undefined),-15,2.13,–
Cc1cc(N2CC[C@H](N3CCOCC3)[C@H](CCC(=O)O)C2)nc(C)c1C#N,-11,1.95,–
Cc1ccc(-c2ocnc2C(=O)Nc2ccc(Cl)cc2C)o1,6,-0.58,–
COc1ccccc1-c1nnc(CN2CCC[C@H]2c2cnn(C)c2)o1,-6,0.84,–

Compound,% Inhibition [%],Z score,% Inhibition (2 µM)
O=C(Nc1cccc(-c2ccsc2)c1)N[C@H]1CCOC1,-6,0.7,–
Cc1cccc(S(=O)(=O)Nc2cccn3nc(C4CC4)nc23)c1,-3,0.34,–
CC1=NN(c2ccc(C)cc2)C(=O)C12Cc1cc(C(F)(F)F)ccc1N1CCN(c3ncccn3)CC12 (centres undefined),-43,5.08,–
Cc1cc(=O)n2ccn([C@H]3CCC(C)(C)C3)c2n1,-11,1.25,–
Cc1ccccc1CC(=O)Nc1ccc(-c2nc3ncccc3o2)cc1,35,-4.66,–
CN(C)S(=O)(=O)CCn1cc(-c2ccc3c(c2)CCC3)nn1,5,-0.63,–
Cn1ncc2c1CN(c1ncc(C(F)(F)F)cc1Cl)C2,9,-1.27,–
O=C(CN1CCCCC1=O)Nc1ccc(Cl)c(OC(F)F)c1,-8,1.31,–
COC(=O)CCN1CCN(Cc2cn(C)nc2C)[C@@H](C)C1,-9,1.1,–
CCCCNC(=O)Cc1noc([C@@H](O)C2CCCC2)n1,-11,1.53,–
Cc1ccc(-c2csc(NS(=O)(=O)c3ccc(Cl)cc3)n2)o1,1,-0.22,–
COc1nn(C)cc1C(=O)NCCN1Cc2cc(Cl)ccc2OCC1=O,-10,1.8,–
COc1ccc(CN2C(=O)N[C@@H](CC(=O)Nc3nccs3)C2=O)cc1OC,9,-1.12,–
Cc1ccc([C@@H]2CCCCN2C(=O)Cc2ccn(C)n2)o1,-6,0.97,–
Cc1nn(C)cc1CN1CCC[C@@](F)(c2nc(-c3ccncc3)no2)C1,5,-0.67,–
O=C1CN(c2ccccc2)C(=O)N1CC1CCS(=O)(=O)CC1,2,-0.24,–
CC[C@H](C)Cc1nc(CN)n(Cc2cccc(C)c2)n1,0,0.05,–
COc1ccccc1CNC(=O)[C@@H]1CN(S(C)(=O)=O)c2cc(C)ccc2O1,11,-1.46,–
COCc1ccc(C(=O)N(CC(F)(F)F)[C@H]2CCCOC2)cc1,-10,1.04,–
Cc1cc(C2CCC(C(=O)NCC3CC3)CN2C(=O)NC(C)C)ccc1F (centres undefined),0,0,–
CC(C)Cc1ccc(S(=O)(=O)N(CCCc2ccccc2)CC(=O)N2CCNCC2)cc1,3,-0.37,–
Cc1cc(C(=O)NC[C@@H](c2ccco2)n2cccn2)no1,8,-1.14,–

Compound,% Inhibition [%],Z score,% Inhibition (2 µM)
CS(=O)(=O)c1ccc(-n2nc(C3CC3)nc2COCc2ccccc2)cc1,-3,0.25,–
COc1ccccc1CNC(=O)C1CCN(c2nnc3c(Cl)cccn23)CC1,-10,1.14,–
Cc1c(O)cccc1C(=O)N1CCCN(CC2CC2)[C@H](C(C)C)C1,-12,1.08,–
CCNC(=O)c1ccc(-c2ccc3c(c2)OCCO3)nc1,-2,0.32,–
CN1C(=O)C2(CCN(C(=O)[C@H]3CC(=O)N(C4CC4)C3)CC2)c2ccccc21,-3,0.65,–
C[C@H]1C[C@@H](c2nc(Cc3cccnc3)no2)CCN1C,-4,0.84,–
CCC(=O)N1CCN(c2nc3c(s2)C[C@@H](C(=O)N2CCN(C(C)C)CC2)CC3)CC1,34,-3.9,–
C[C@@H]1C[C@H](O)CN(C(=O)NCC2CCOC3(CCC3)C2)C1 (some centres undefined),-3,0.35,–
CC(C)c1nc(NC(=O)[C@H](C)OC2CCCCCC2)n(C)n1,-5,0.59,–
O=C(NCC[C@H]1CCCO1)c1sccc1OC(F)F,-6,0.59,–
O=C(NCc1nccs1)c1ccc2c(c1)CN(CCCn1ccnc1)C2=O,-8,0.96,–
COCCOc1ccnc(-c2noc([C@@H]3CCCN3Cc3cccc(OC)c3)n2)c1,-8,1.15,–
Cc1nc(CNC(=O)CN(C)C(N)=O)sc1C,-12,1.17,–
COc1ccc(CNC(=O)Cn2c(C)cc(-c3nnc(C)o3)c2C)cc1,-3,0.51,–
CC[C@H](C)N(Cc1csc(COc2cc(C)cc(C)c2C)n1)C(=O)c1ccc(OC)cc1,-10,1.24,–
CC1CCN(c2nc(O)c3c(n2)CCN(Cc2ccc(-c4ccc(C#N)cc4)o2)C3)CC1,-7,1.23,–
CC1CC(NCC(c2ccco2)N2CCCC2)CN1C1CC1 (centres undefined),9,-1.1,–
C[C@H]1c2cccn2CCN1CC(=O)NCc1cccs1,-12,1.16,–
CCNC(=O)NCc1nc(-c2cccc(F)c2)c(-c2ccccn2)[nH]1,-1,0.1,–
